The whole screen tested about 46,000 compounds, of which about 60 (0.1%) were called active. Another 3% or so got no clear call; they are omitted. Calls follow the shape of the dose curve; as a rule, active = well fitted inhibition curve with a large enough effect; inconclusive = small, poorly fitted or top-dose-only effect; inactive = no such curve, though single readings can be large or run the other way. The list shows a part of the results.
Experiment: Primary qHTS assay for Inhibitors of ovarian cancer metastasis using an organotypic tumor microenvironment (TME) model. Also: nearly all actives have a fitted effect of over 65% in size.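 As to activity change, negative = inhibition: plate controls were DMSO wells for no effect and tomatine positive control wells for full effect.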
Conditions: SKOV3ip1-GFP adhesion/invasion on 3D omental model, fluorescence; series mostly up to 45.8 µM; activity change, negative = inhibition: at the top concentration
How it was run: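 Primary human omental fibroblast/mesothelial 3D culture pre-formed 48 h. SKOV3ip1-GFP cells added with compounds (0.36-46 umol/L), incubated 2 h RT/16 h 37 C, fixed; GFP cells quantified at 488/509 nm.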

outcome, inactive:
CCOC(=O)c1ccc(NC(=O)c2ccc(CN3C(=O)CCn4nc(C)cc43)cc2)cc1, O=C(Nc1cccc(C(F)(F)F)c1)Nc1cccs1, CCc1cccc(C)c1NC(=O)CCCN1C(=O)C(c2ccccc2)Oc2cccnc21 (stereo not given), O=C(Cn1c(=O)c2ccccc2n2nncc12)Nc1cccc(F)c1, Cc1nc(N2CCCC2)c2c(C(=O)Nc3ccc(Br)cc3F)c(C)oc2n1, CCOC(=O)C1CCC(CN(Cc2ccc(OC)cc2)S(=O)(=O)c2ccc(F)c(C(=O)Nc3cc(C)ccc3C)c2)CC1 (stereo not given), CC(C)Oc1ccc(CNC(=O)C2CCN(C(=O)N3CC(C)Oc4ccccc43)CC2)cc1 (stereo not given), CC(=O)c1cc(-c2ccccc2)n(CC(=O)NCCc2ccc(C)cc2)c1C, COc1ccc(-c2csc3nc(-c4ccccc4)oc(=O)c23)cc1OC, CCOC(=O)c1c(Nc2cccc(C(=O)OC)c2)nnc(-c2ccccc2)c1-c1ccccc1, O=C(Nc1cccc(C(F)(F)F)c1)N1CCC(CN2CCCCCC2)CC1, COc1ccccc1NC(=O)N1CCN(c2nnc(C)c3c(C)n(-c4ccc(Cl)cc4)nc23)CC1, COc1ccc(CC(=O)NCCc2sc(-c3ccc(Cl)cc3)nc2C)cc1OC, COc1ccc(OC)c(NC(=O)CCNS(=O)(=O)c2cccc3nsnc23)c1, N#Cc1ccc(OC(=O)c2cc(-c3ccc(Cl)cc3)on2)cc1, CCOC(=O)c1c(NC(=O)c2ccc(S(=O)(=O)N3CCC(C)CC3)cc2)sc2c1CCN(C(C)C)C2, COc1ccc(CCNC(=O)CCCn2c(=O)c3ccccc3n(CC(=O)Nc3cccc(C)c3)c2=O)cc1OC, Cc1nn(C(=O)COc2ccc(Cl)cc2)c(C)c1Sc1ccccc1, Cc1oc(-c2ccccc2)nc1Cn1c(SCc2cccc(C(F)(F)F)c2)nc2cccnc21, CC(=O)N1c2ccc(S(=O)(=O)N3CCCCCC3)cc2CC1C(=O)NCc1ccccc1 (stereo not given), COCCn1c(C)cc(O)c(C(c2ccccc2)N2CCN(CCO)CC2)c1=O (stereo not given), Cc1ccc(Cl)cc1NC(=O)CCCn1c(=O)c2cccn2c2ccccc21, Cc1ccc2c(n1)sc1c(=O)n(-c3cccc(C(F)(F)F)c3)nnc12, COc1ccc2c(c1)c1c(c(=O)n(Cc3ccccc3)c(=O)n1CC(=O)Nc1cc(C)cc(C)c1)n2C

Activity change, negative = inhibition, inactive:
O=C(CSc1nnc2scc(-c3ccccc3)n12)Nc1ccc(Cl)cc1 -2.43%, Cc1ccccc1C(=O)N1CCC(N2CCN(Cc3ccc(F)cc3)C(=O)C2=O)CC1 5.16%, COc1cc2ncnc(-n3nc(-c4ccccn4)nc3N)c2cc1OC 4.6%, O=C(CSc1nc2ccsc2c(=O)n1-c1ccc(Br)cc1)NCc1ccccc1 -3.89%, CCc1cccc(C)c1NC(=O)CCCn1nc(C)c2sc3ccccc3c2c1=O 23.3%, Cc1cc(N2CCCCC2)nc2ccc(NC(=O)/C=C/c3ccc(OCCC(C)C)cc3)cc12 2.52%, Cc1ccccc1Cn1cnc2nc3c(cc2c1=O)CC(C)CC3 (stereo not given) -8.69%, CC1CCN(c2ccc(-c3nc(-c4ccccc4)no3)cc2[N+](=O)[O-])CC1 -3.11%, COc1ccc(NC(=O)NCCn2nnc3cc(S(=O)(=O)N(C)C)ccc32)cc1 -25.4%, CCOC(=O)c1c(C)[nH]c(C)c1S(=O)(=O)N(C)CC(=O)NCc1cccc(Br)c1 0.987%, O=C(NCc1nc2ccccc2[nH]1)c1cccc(Cl)c1 2.11%, COCCCNC(=O)c1ccc2c(c1)nc1n2CCCCC1 -8.09%, Cc1ccc(NC(=O)Cn2cc3c(n2)CCCC3)c(C)c1 11.1%, COc1ccc(NC(=O)CSc2nc(-c3cccs3)cc(C(F)(F)F)n2)c(OC)c1 8.58%, O=C(NC1CCCCC1)c1ccc(CSc2nc3ccncc3n2Cc2ccccc2F)cc1 -36.1%, Cc1ccc(Cl)cc1NC(=O)CCn1c(=O)c2cccn2c2cccnc21 2.92%, CCOc1ccc2nc(N3CCC(C(=O)Nc4cc(C)ccc4C)CC3)sc2c1 -1.01%, Cc1noc(Cn2c(=O)c3cc4c(cc3n(CC(=O)Nc3ccccc3F)c2=O)OCO4)n1 0.382%, Oc1c(C(c2ccccc2Cl)N2CCN(Cc3ccccc3)CC2)sc2nc(-c3ccco3)nn12 (stereo not given) -5.84%, CCc1ccc(NC(=O)CSc2ccc(-c3cccs3)nn2)cc1 -12.5%, O=C(CSCc1cnn(-c2ccccc2)c1-n1cccc1)NCc1ccc(F)cc1 3.66%, CCN(CC)CCCNC(=O)CSc1nc(-c2ccc(OC)cc2)cc(C(F)(F)F)n1 -9.32%, CCOc1ccc(NC(=O)c2ccc3snnc3c2)cc1 -12.5%, CCOC(=O)c1cnc2ccc(OCC)cc2c1N1CCN(c2ccccc2F)CC1 7.89%, FC(F)(F)c1cc(-c2cccc(Br)c2)nc2ncnn12 31.1%, CCOC(=O)c1ccc(CN(Cc2ccccc2)S(=O)(=O)c2ccc(Cl)cc2)cc1 1.28%, Cc1cccc(-c2nc(CSc3nncn4c3cc3sccc34)c(C)o2)c1 8.51%, CC(C)NC(=O)C1CCC(Cn2c(=O)c3sccc3n(CC(=O)Nc3ccccc3)c2=O)CC1 (stereo not given) -1.91%, CCOc1ccccc1-c1noc(CSc2nnc(-c3ccccc3)n2-c2cccc(C)c2)n1 -4.26%, C[C@@H]1C[C@H]2[C@@H]3CCC4=CC(=O)C=C[C@]4(C)[C@@]3(Cl)[C@@H](O)C[C@]2(C)[C@@]1(OC(=O)c1ccco1)C(=O)CCl 17.6%, CCOc1ccc(NC(=O)c2ccc3c(SCC(=O)O)c4c(nc3c2)CCC4)cc1 -1.45%, COc1cc(-c2nc3ccccn3c2Nc2ccccc2C)ccc1O -18.9%, CCOc1ccccc1NC(=O)COC(=O)c1cn(CC)c2nc(C)ccc2c1=O 9.89%, CCOc1ccc(S(=O)(=O)NCC(c2ccco2)S(=O)(=O)c2ccc(C)cc2)cc1 (stereo not given) -1.46%, COc1ccc(Nc2cc(C(=O)NCCCN(C)Cc3ccccc3)c3ccccc3n2)c(OC)c1 -26.2%, COc1ccccc1C(=O)Nc1ccc(NC(=O)c2cccs2)cc1 -9.74%, CC1CCN(c2cc3c(cc2F)c(=O)c(S(=O)(=O)c2cccc(Cl)c2)cn3Cc2ccccc2)CC1 -3.06%, COc1ccccc1CNS(=O)(=O)c1ccc(-c2cc(C(F)(F)F)on2)s1 6.14%, CC1CCc2c(sc(NC(=O)Cn3nnc(-c4ccc(C(F)(F)F)cc4)n3)c2C#N)C1 (stereo not given) 12.6%, COc1ccc(C2=C(C(C)=O)Sc3nnc(-c4ccc(C)cc4)n3N2C(C)=O)cc1OC -11.3%, COc1ccc(NC(=O)C(=O)NCCc2sc(-c3ccc(Cl)cc3)nc2C)cc1 4.95%, Cn1nc(-c2ccccc2F)c2cc(C(=O)NCc3ccc(Cl)cc3)sc21 2.77%, O=C(Cc1ccc(NC(=O)N2CCCCc3ccccc32)cc1)NCc1ccccc1Br 6.05%, Cc1cccc(CCNC(=O)C2CCC(CNS(=O)(=O)c3c(C)cc(C)cc3C)CC2)c1 (stereo not given) 22.4%, COc1cc(Cl)c(C)cc1NC(=O)Cn1cc(S(=O)(=O)N2CCN(c3ccccc3F)CC2)c2ccccc2c1=O 9.54%, CCc1ccc(NC(=O)CSc2nc3n[nH]c(C)c3c(=N)n2-c2ccc(C)cc2)cc1 -33.3%, O=C(NCc1ccc(F)cc1)c1c2c(nc3ccccc13)C(=O)N(C1CCCCC1)C2 -16.6%, COc1ccccc1CNc1ccc(-c2nc(-c3ccccn3)no2)cc1[N+](=O)[O-] -2.34%, Cc1ccc(NC(=O)CN(C)S(=O)(=O)c2ccc3c(c2)n(C)c(=O)c(=O)n3C)c(C)c1 3.96%, O=C(CCC1N=C2c3ccccc3N=C(SCC(=O)Nc3ccccc3F)N2C1=O)NCc1ccco1 (stereo not given) -0.919%, Cc1cccc(NS(=O)(=O)c2ccc3[nH]c(=O)[nH]c3c2)c1C -1.65%, CCOc1ccc(-c2c(C)nn3c(C)c(C(=O)NCc4cccc(OC)c4)cnc23)cc1OCC -4.57%, CCc1ccc(CN2C(=O)c3ccccc3C2C(=O)NC2CCCCCC2)cc1 (stereo not given) 1.44%, COc1ccc(C(=O)Nc2cnc3ccccn3c2=O)cc1 -22.5%, CCOC(=O)c1ccc(NC(=O)CC2C(=O)N(c3ccccc3)C(=O)N2Cc2ccc(C)cc2)cc1 (stereo not given) -4.39%, CCOc1cc(C(=O)N(Cc2nc(-c3ccc(C)cc3)no2)C(C)C)cc(OCC)c1OCC -0.923%, COc1ccc(-n2ncc(C(=O)N3CCN(Cc4ccccc4)CC3)c2C2CCN(C(=O)OC(C)(C)C)CC2)cc1 3.68%, CC(=O)Nc1ccc(S(=O)(=O)NCc2ccc3c(c2)CCN3C(C)=O)cc1 -8.45%, CCc1ccccc1Nc1nn2c(=O)c3ccc(C(=O)NC4CCC(C)CC4)cc3nc2s1 (stereo not given) -10.5%, O=C(Nc1ccc2oc(-c3ccccc3)nc2c1)c1ccc2ccccc2c1 -14.8%, COc1cc2ncnc(Nc3cccc(Cl)c3)c2cc1OC 3.99%, COc1cc2c(cc1OC)C(COc1ccc3c(C)cc(=O)oc3c1)N(C(=O)c1cccc(OC)c1OC)CC2 (stereo not given) 3.36%, Clc1ccc(OCc2nc(-c3ccc(-n4cccc4)cc3)no2)cc1 1.77%, O=c1oc2cc(O)ccc2s1 -19.6%, O=C(Nc1ccccc1OCc1cc(=O)n2ccccc2n1)c1cccc(Br)c1 -6.64%, Cc1cc(C)cc(NC(=O)CSc2oc(-c3ccco3)nc2S(=O)(=O)c2ccccc2)c1 -14.7%, Cc1cccc(N2CCN(C(=O)c3ccc4c(c3)c(C)c(C)n4C)CC2)c1C 28.1%, CCOc1ccc(NC(=O)N2CCC(CN3CCCCCC3)CC2)cc1 2.2%, CC(=O)N1CCc2c(sc3nc(SCC(N)=O)n(-c4ccc(F)c(Cl)c4)c(=O)c23)C1 -1.31%, Cc1ccc(CN2CCSc3ccc(C(=O)Nc4cc(C)cc(C)c4)cc32)cc1 4.29%, CN(C(=O)CSc1nnc(-c2ccc([N+](=O)[O-])cc2)o1)C1CCCCC1 -23.1%

Source: PubChem BioAssay AID1963576 (National Center for Advancing Translational Sciences (NCATS), 2024)
